Experimental data: the antibiotic and cytotoxicity screens of Wong et al. (2023)
The other results are listed elsewhere or left out.

Assays:
HSkMC = human skeletal muscle cells; test: cytotoxicity call (relative viability < 0.9); conditions: 10 µM
HepG2 = test: cytotoxicity call (relative viability < 0.9); conditions: 10 µM
S. aureus RN4220 = test: growth inhibition call (relative growth <= 0.2); conditions: 50 µM

C/C=C/c1cnc2c(c1)C(=O)N([C@@H](C)CO)C[C@@H](C)[C@H](CN(C)S(=O)(=O)c1ccc(OC)cc1)O2
inactive: cytotoxicity call (HSkMC) | cytotoxicity call (HepG2) | growth inhibition call (S. aureus RN4220)

O=C(C[C@@H]1CC[C@H]2[C@@H](COC[C@H](O)CN2S(=O)(=O)c2ccc(Oc3ccccc3)cc2)O1)NCCN1CCCCC1
inactive: cytotoxicity call (HSkMC) | cytotoxicity call (HepG2) | growth inhibition call (S. aureus RN4220)

C[C@H](CO)N1C[C@H](C)[C@@H](CN(C)C(=O)Nc2ccccc2F)Oc2cc(C#CCN(C)C)ccc2S1(=O)=O
inactive: cytotoxicity call (HSkMC) | cytotoxicity call (HepG2) | growth inhibition call (S. aureus RN4220)

C[C@H]1CN([C@@H](C)CO)C(=O)c2cc(NC(=O)C3CCCCC3)ccc2O[C@@H]1CN(C)Cc1ccc(Cl)c(Cl)c1
inactive: cytotoxicity call (HSkMC) | cytotoxicity call (HepG2) | growth inhibition call (S. aureus RN4220)

C[C@@H]1CN([C@@H](C)CO)C(=O)CCCn2nncc2CO[C@H]1CN(C)S(=O)(=O)c1ccc(-c2ccccc2)cc1
inactive: cytotoxicity call (HSkMC) | cytotoxicity call (HepG2) | growth inhibition call (S. aureus RN4220)

CC(C)NC(=O)[C@@H](N)c1ccccc1
inactive: cytotoxicity call (HSkMC) | cytotoxicity call (HepG2) | growth inhibition call (S. aureus RN4220)

O=c1c(-c2ccc(O)cc2)coc2cc(O[C@@H]3O[C@H](CO)[C@@H](O)[C@H](O)[C@H]3O)ccc12
inactive: cytotoxicity call (HSkMC) | cytotoxicity call (HepG2) | growth inhibition call (S. aureus RN4220)

C[C@@H]1CN([C@H](C)CO)C(=O)Cc2cc(NS(=O)(=O)c3ccccc3)ccc2O[C@@H]1CN(C)Cc1ccc2c(c1)OCO2
inactive: cytotoxicity call (HSkMC) | cytotoxicity call (HepG2) | growth inhibition call (S. aureus RN4220)

CC(=O)N(C)C[C@@H]1Oc2ncc(C#C[C@@H](C)O)cc2C(=O)N([C@@H](C)CO)C[C@H]1C
inactive: cytotoxicity call (HSkMC) | cytotoxicity call (HepG2) | growth inhibition call (S. aureus RN4220)

C[C@@H]1CN([C@@H](C)CO)C(=O)c2cccc(NS(C)(=O)=O)c2O[C@@H]1CN(C)Cc1ccc(C(=O)O)cc1
inactive: cytotoxicity call (HSkMC) | cytotoxicity call (HepG2) | growth inhibition call (S. aureus RN4220)
